# According to publication PMC4336329 (PLoS ONE, 2015):
# The whole screen tested about 310,000 compounds, of which about 14,000 (4.5%) showed an effect of 50% or more. Effects have a minus sign here. Some of the results follow.
# Molecular target: human ether-à-go-go-related gene (hERG) potassium channel (human, UniProt Q12809)
# Assay: primary screen, population patch clamp on CHO cells stably expressing hERG
# 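Note: peak tail current of the secondary pulse compared with the same well before compound.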
# Chain of human ether-à-go-go-related gene (hERG) potassium channel (Q12809 whole entry, looked up): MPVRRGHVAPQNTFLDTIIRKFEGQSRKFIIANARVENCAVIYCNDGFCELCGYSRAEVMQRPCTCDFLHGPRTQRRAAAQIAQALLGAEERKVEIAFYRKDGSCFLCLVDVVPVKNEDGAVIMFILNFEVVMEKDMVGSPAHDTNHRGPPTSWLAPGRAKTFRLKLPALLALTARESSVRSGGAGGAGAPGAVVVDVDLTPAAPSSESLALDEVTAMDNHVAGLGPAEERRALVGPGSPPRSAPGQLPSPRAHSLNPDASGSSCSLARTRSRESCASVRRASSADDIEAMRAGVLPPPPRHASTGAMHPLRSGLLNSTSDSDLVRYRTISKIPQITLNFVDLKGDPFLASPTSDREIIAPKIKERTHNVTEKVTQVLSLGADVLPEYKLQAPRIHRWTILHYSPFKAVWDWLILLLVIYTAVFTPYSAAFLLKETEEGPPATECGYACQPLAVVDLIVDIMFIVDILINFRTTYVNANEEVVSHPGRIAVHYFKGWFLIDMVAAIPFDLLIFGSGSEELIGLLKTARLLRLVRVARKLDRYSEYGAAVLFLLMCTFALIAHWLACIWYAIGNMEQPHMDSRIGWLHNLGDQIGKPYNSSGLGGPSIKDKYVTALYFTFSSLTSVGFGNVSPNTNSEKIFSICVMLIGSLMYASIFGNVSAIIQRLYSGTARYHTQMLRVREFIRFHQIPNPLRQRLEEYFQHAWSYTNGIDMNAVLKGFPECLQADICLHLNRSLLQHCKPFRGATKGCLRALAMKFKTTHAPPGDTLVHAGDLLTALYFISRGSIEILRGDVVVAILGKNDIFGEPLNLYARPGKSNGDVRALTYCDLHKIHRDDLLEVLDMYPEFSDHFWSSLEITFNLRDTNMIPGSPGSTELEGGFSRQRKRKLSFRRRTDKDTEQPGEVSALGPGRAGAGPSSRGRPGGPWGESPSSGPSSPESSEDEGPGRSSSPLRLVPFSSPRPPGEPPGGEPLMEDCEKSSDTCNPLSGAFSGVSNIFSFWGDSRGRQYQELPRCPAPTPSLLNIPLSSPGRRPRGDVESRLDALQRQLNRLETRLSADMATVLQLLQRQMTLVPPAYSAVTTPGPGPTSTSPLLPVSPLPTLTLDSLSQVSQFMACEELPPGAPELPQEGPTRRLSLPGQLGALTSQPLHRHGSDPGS
row,SMILES,"hERG current change (%, negative = inhibition) at 10uM"
1,Clc1ccc(OCCNCCc2ccccc2)cc1.O=C(O)C(=O)O,-73.7%
2,CCOC(=O)c1c(NC(=O)COC(=O)/C=C/c2ccccc2)sc(C(=O)NC)c1C,10.2%
3,CSc1nsc(SCC(=O)N2CCc3ccccc32)n1,13.4%
4,CCCCCCOc1ccc(/C=c2\s/c(=C(/C#N)C(=O)NCc3ccco3)n(-c3ccccc3)c2=O)cc1,12.6%
5,Cc1csc(=O)n1CCC(=O)OCC(=O)Nc1ccc(C(N)=O)cc1,12.4%
6,Cc1ccc2cc(C#N)c(N3CCCN(C(=O)C4CCCO4)CC3)nc2c1C (stereo not drawn),-32.4%
7,O=[N+]([O-])c1cccc(/C=N/N2CCN(Cc3ccc(Cl)cc3)CC2)c1,5.85%
8,Cc1cccc(C)c1OCc1cc(C(=O)N(C)Cc2cc(C3CC3)n[nH]2)no1,-43%
9,COc1cnc(-c2ccccc2)nc1Oc1cccc(C)c1C,-0.114%
10,Cc1cccc(C(=O)Oc2ccc(/C=N/NC(=O)c3ccc(O)cc3)cc2)c1,28.6%
11,Cc1c(C(=O)NCCCn2ccnc2)oc2ccccc12,10.4%
12,CCCCCNC(=O)C(C)Sc1ccc(Cl)cc1 (stereo not drawn),10.9%
13,C[N+](C)(C)C(Cc1ccccc1)C(=O)[O-] (stereo not drawn),10.2%
14,CN(CC1CCCO1)S(=O)(=O)c1ccc(C(=O)Nc2ccc([N+](=O)[O-])cc2)cc1 (stereo not drawn),-22.2%
15,N#CCCN(C(=O)COC(=O)Cc1ccc(Br)cc1)c1ccccc1,-14.1%
16,CCc1nc(SCc2ccc([N+](=O)[O-])cc2)n[nH]1,-7.6%
17,O=C(Nc1nnc(COc2ccc(F)cc2)s1)c1ccco1,-4.54%
18,Cc1cccc(C)c1NC(=O)COC(=O)c1ccc([N+](=O)[O-])o1,11.5%
19,COC(=O)c1c(-c2ccccc2OC)sc2ccccc12,4.01%
20,Cc1cc(C)c(S(=O)(=O)N2CCC(C(=O)OCc3c(C)noc3C)CC2)c(C)c1,-22.6%
21,CCCCSc1nc(N)c(C#N)c(-c2cccs2)c1C#N,5.08%
22,Cc1nc(-c2ccc(Cl)cc2)sc1C1(C)CC(c2ccncc2)=NO1 (stereo not drawn),-14.1%
23,CCn1c(SCCN2CCCCC2)nnc1-c1ccc(S(=O)(=O)N2CCOCC2)cc1.O=C(O)C(=O)O,-6.13%
24,CN(C)S(=O)(=O)c1ccc(C(=O)NCC(C)(C)CN=C2NS(=O)(=O)c3ccccc32)cc1,2.11%
